From PubChem BioAssay (NCI) come the findings set out here.

Several values for one entry are separate records, joined by “and”; a condition that tells them apart may be missing. Equal values may be shown once.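 Briefly, cells in 96-well plates were exposed to five compound concentrations for 48 h, and endpoints were estimated by linear interpolation. GI50 is the concentration that inhibits growth by half. TGI is the concentration that stops growth completely.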 Bridge positions count the residues as written; N and C are the ends. Square brackets hold non-standard residues; d marks the D form. Peptide text beside a SMILES is read from it. * marks the point of attachment. ξ: configuration not given here. X21 = O=C(/C=C/C=C/C=C/C=C/C=C/C(=O)*)NC1=C(O)CCC1=O; NMeA = CN[C@@H](C)C(=O)O; ξF = NC(Cc1ccccc1)C(=O)O; ξA = CC(N)C(=O)O

The test concerns NCI-H322M lung. The test is described as follows: growth of human tumour cells (NCI), 48 h.
Take `N=C(N)c1ccc(-c2ccc(-c3cccs3)s2)cc1`: the GI50 was 0.255 µM and the TGI amounted to 1.66 µM. The compound `Cc1cc(-c2nc3ccccc3s2)ccc1NC(=O)[C@@H](N)CCCCN` returned a TGI of 23.4 µM.

As to `CCN(CC)CCCCCCNc1cccc2cc(Br)cnc12`, the GI50 was 10.7 µM and the TGI worked out at 23.3 µM. Compound `CCCCn1cnc2c(c(CC#N)nn2-c2ccccc2)c1=N` came in with a TGI above 100 µM. Consider `COC(=O)C1=COC(C)C2CN3CCc4c([nH]c5ccccc45)C3CC12` (centres undefined), for which the GI50 was 46.9 µM and > 100 µM; the TGI is above 100 µM. As for `COc1cc(-c2cc(=O)c3cc4c(=O)cc(-c5cc(OC)c(OC)c(OC)c5)oc4cc3o2)cc(OC)c1OC`, the TGI was above 100 µM.

As for `Cc1ccccc1C1=[N+]([O-])c2ccc(Cl)cc2C1=O`, the TGI worked out at 48.2 µM. The same measure, in the same setting: the result for `CC1NC(=O)[C@H](C)N(C)C(=O)[C@@H]2CCCN2C(=O)[C@@H](NC(=O)C(Cc2ccccc2)NC(=O)/C=C/C=C/C=C/C=C/C=C/C(=O)NC2=C(O)CCC2=O)COC(=O)[C@@H]2CCCN2C1=O` (some centres undefined) (X21-[ξF]SP[NMeA][ξA]P; ester 2-C) reads above 100 µM; that for `COC(c1ccc(C(C)(C)C)cc1)(c1ccc(C(C)(C)C)cc1)c1ccc(C(C)(C)C)cc1`, above 100 µM. As for `CC(C)=C1CCC(CN(C)C)C1=O` (centres undefined), the TGI is above 100 µM. In the case of `CCCC/C(=C\C1=C(C)C(=O)C(OC)=C(OC)C1=O)C(=O)O`, the GI50 is above 100 µM and the TGI was above 100 µM. For `NC(CC1=CS(=O)(=O)c2ccc(Cl)cc21)C(=O)O` (centres undefined), the TGI is above 100 µM. Same read-out and setting: the result for `O=C(N/C(=C\c1ccc([N+](=O)[O-])cc1)c1nc2ccccc2[nH]1)c1ccccc1` reads above 100 µM. `CCC(C)(O)c1cnc(CC(C)C)c(=O)n1O` (centres undefined): the TGI was above 100 µM.

`O=C(Oc1cc(=O)c(OC(=O)c2ccccc2)co1)c1ccccc1` had a TGI above 100 µM.

Consider `Nc1nc(N)c(N=O)c(Nc2ccc(Br)cc2)n1`, for which the TGI was found to be 56.7 µM. The same measure, in the same setting: the result for `O=C(CN(c1ccccc1)c1ccccc1)N1c2ccccc2C2C=CC=CC21` (centres undefined) reads above 55.1 µM; that for `CCN1c2ccccc2-c2c3c1cc(C)cc3c1ccccc1[n+]2CC`, 5.56 µM. With `CCc1ccc2c(c1)C(=O)c1c-2n(CCCN=[N+]=[N-])c(=O)c2cc([N+](=O)[O-])ccc12`, the GI50 was above 50 µM and the TGI was above 50 µM. In turn, `C=C1c2cc3c(cc2CC12Cc1cc4c(cc1C2=O)CCC4)CCC3` (centres undefined) yielded a TGI above 100 µM.

With `C=CC(=O)N1CN(C(=O)C=C)CN(C(=O)C=C)C1`, the GI50 was 31.2 µM and the TGI turned out to be 95.4 µM.

Take `ClCCN(CCCl)c1ccc(CNc2ccccc2)cc1`: the GI50 was 27.5 µM and the TGI was above 100 µM. Consider `COC(=O)/C(=N/O)C(C(=O)C=C(C)C)C(=O)C(=O)Nc1nc2ccc([N+](=O)[O-])cc2s1` (centres undefined), for which the TGI is above 100 µM. On the same count and under the same terms, under `CC1CC(O)C(=O)C(O[C@@H]2C[C@@H]3CC[C@@H]4[C@H](CC[C@]5(C)C(C6=CC(=O)OC6)CC[C@]45O)[C@@]3(C=O)C[C@H]2O)O1` (some centres undefined) stands 0.143 µM; under `Cc1[nH]c2ccccc2c1C1Cc2ccccc2N1C(=O)C#Cc1ccc([N+](=O)[O-])cc1` (centres undefined), above 100 µM.

Consider `Cc1ccc(OCCn2cc(Nc3ccccc3)c(=O)n(CCOc3ccc(C)cc3)c2=O)cc1`, for which the TGI is above 100 µM. Take `COc1ccc(/C(C)=C(\c2ccc(OCCN3CCCCCC3)cc2)c2ccc(OC(=O)C3CCCCC3)cc2)cc1`: the GI50 was 2.19 µM and the TGI amounted to 7.04 µM. As for `CC(=O)O[C@H]1C(=O)[C@@]2(C)[C@H]([C@H](OC(=O)c3ccc(F)cc3)[C@]3(O)C[C@H](OC(=O)[C@H](O)[C@@H](NC(=O)c4ccccc4)c4ccccc4)C(C)=C1C3(C)C)[C@]1(OC(C)=O)CO[C@@H]1C[C@@H]2O`, the TGI was above 25 µM. In the case of `O=C(Nc1cc(Nc2ncccc2-c2ncnc3nc[nH]c23)ccc1F)c1cc(C(F)(F)F)cc(C(F)(F)F)c1`, the GI50 is 2.8 µM and the TGI is above 10 µM. Turning to `CCCCCCCCCCNC(=O)CI`, the GI50 is 16.2 µM and the TGI stood at 30.4 µM.

On to `CC(C)CC(C/C=C1/CC(CO)(COC(=O)C(C)(C)C)OC1=O)CC(C)C` (centres undefined), for which the TGI was 21.5 µM and 4.9 µM. `N/C(=N\S(=O)(=O)c1c(C(F)(F)F)cccc1C(F)(F)F)Nc1ccc(Cl)cc1` gave a TGI of 56.8 µM. Still for that read-out and setting: under `O=C(/C=C/c1ccccc1)c1ccccc1` stands above 10 µM; under `COc1c(C)n(CCO)ccc1=O`, above 100 µM. Consider `O=C(Nc1cc(Cl)ccc1O)c1ccc(Nc2ccnc(C(F)(F)F)c2)cc1`, for which the GI50 was 2.87 µM and the TGI is above 100 µM. For the compound `O=c1[nH]cnc(NC2C=C(CO)C(O)C2O)c1[N+](=O)[O-]` (centres undefined), the TGI is above 100 µM.

In turn, `CC(O)CCCOC(c1ccccc1)(c1ccccc1)c1ccccc1` (centres undefined) had a TGI of 27.7 µM. `COc1ccc(/C=C2\C[C@H]3[C@@H]4CCC5=C/C(=N/O)CC[C@]5(C)[C@H]4CC[C@]3(C)\C2=N\O)cc1OC` came in with a TGI above 100 µM. Take `Cc1ccc([N+](=O)[O-])cc1N=NC(=O)NNc1cc([N+](=O)[O-])ccc1C`: the TGI is above 100 µM. For `O=C1NCC(NC(=O)C(F)(F)F)c2c(Br)sc(Br)c21` (centres undefined), the TGI was above 100 µM. Regarding `COc1cc2c(cc1OC)[C@H]1CN3CCC[C@H]3C=C1c1ccc(OC)c(O)c1-2`, the TGI came out at 0.00175 µM. In turn, `CC(=O)N1CCN(c2ccc(OCC3COC(Cn4ccnc4)(c4ccc(Cl)cc4Cl)O3)cc2)CC1` (centres undefined) displayed a TGI above 100 µM. On to `COc1ccc(-c2ccc3c(N4CCOC[C@@H]4C)nc(N4CCOC[C@@H]4C)nc3n2)cc1CO`, for which the GI50 is 0.00516 µM and 0.0202 µM; the TGI was 0.742 µM and 5.03 µM. In the case of `O=C(NCc1ccc(Cn2c(=O)sn(-c3ccccc3)c2=O)cc1)OCc1ccc2cccc(O)c2n1`, the GI50 was 1.6 µM and the TGI amounted to 3.26 µM.

In turn, `O=C(O)C(SC1=NNC2(C(=O)N1)c1ccccc1-c1ccccc12)SC1=NNC2(C(=O)N1)c1ccccc1-c1ccccc12` gave a TGI above 10 µM. With `COc1cc2c(Nc3cc(Cl)c(OC)c(Cl)c3)c(C#N)cnc2cc1OCCCN1CCN(C)CC1`, the GI50 is 0.394 µM and the TGI was 11.7 µM. Consider `COc1ccc(-c2oc(/C=N/NC(N)=S)c([N+](=O)[O-])c2-c2ccc(OC)c(OC)c2)cc1OC`, for which the TGI is above 100 µM. `O=C(Cc1nc2c3c(ccc2[nH]c1=O)C(=O)c1ccccc1C3=O)C(=O)Nc1ccccc1[N+](=O)[O-]` displayed a TGI above 100 µM.

Consider `N#CC(=Nc1ccccc1N(C(=O)c1ccccc1)C(=O)c1ccccc1)c1ccccc1`, for which the TGI is above 100 µM. The same measure, in the same setting: the result for `C[C@@H]1S[C@H](c2ccccc2F)N2Cc3ccccc3N=C12` reads above 100 µM.

Consider `COc1cc2c(/C=N\N=C(N)N)c[nH]c2cc1C`, for which the GI50 is 11.2 µM and the TGI was determined as 29.4 µM. `COC(=O)CCc1cc(OC)c2c(c1)[C@H](C(=O)OC)[C@@H](c1ccc(O)c(OC)c1)O2` showed a TGI above 100 µM.

For `Cc1ccc(OCCOCCOCCOCCOc2ccc(C)n(O)c2=S)c(=S)n1O`, the GI50 is 0.0278 µM and the TGI was above 69.4 µM.

Turning to `Nc1ccccc1O.O.O=C(O)C1[O][Sb][O]C1C(=O)O` (centres undefined), the GI50 was 97.3 µM and the TGI is above 100 µM. `C[C@]12CC[C@@H]3c4ccc(O)cc4CC[C@H]3[C@@H]1C/C(=C\c1ccncc1)[C@@H]2O` registered a TGI above 100 µM. On the same count and under the same terms, under `Cn1c(=O)c2c(nc(C(=N)SCC(=O)O)n2C)n(C)c1=O` stands above 100 µM; under `CCOC(=O)C(Cl)(Cl)/S(=N\S(=O)(=O)c1ccccc1)NC(=O)c1ccccc1` (centres undefined), above 100 µM; under `Cc1cn([C@@H]2C[C@H](CO)[C@@H](O)C2)c(=O)[nH]c1=O`, above 100 µM. `O=C1c2ccccc2-c2c1c1ccccc1c(=O)n2CCN1CCNCC1`: the GI50 is 3.7 µM and the TGI was 13.5 µM. Compound `COc1ccc(S(=O)(=O)N2C(=O)CCC2C(=O)NN)cc1` (centres undefined) registered a TGI above 100 µM. In turn, `COC(=O)c1c2c(cc3c1CCC3)CCC2` registered a TGI above 100 µM.

As for `O=C(/C(=C\c1c(-c2ccccc2)[nH]c2ccccc12)S(=O)(=O)c1ccccc1)c1ccccc1`, the GI50 is above 100 µM and the TGI was above 100 µM. Take `COC(=O)CN1c2nc(C#N)c(C#N)nc2N(CC(=O)OC)c2nc(C#N)c(C#N)nc21`: the TGI came out at 30.2 µM. Still for that read-out and setting: the result for `CSC(=Nc1ccccc1)N(c1ccccc1)c1nc(=[N+](C)C)ss1` reads 27.5 µM. Still for that read-out and setting: the result for `CC(=O)O/N=C/c1c2ccccc2cc2ccccc12` reads above 100 µM. Compound `NC(=O)C(=O)CC(=O)c1ccccc1NC1=CC(=O)C(=O)c2ccccc21` showed a TGI above 100 µM. Still for that read-out and setting: under `CCOC(CNCCC(=O)OC)OCC` stands above 10 µM; under `CC1(C)C2CC(=O)C1(C)C(O)C2Br` (centres undefined), above 100 µM. Take `COc1cc2c(cc1O)CCN[C@]21CS[C@@H]2c3c(OC(C)=O)c(C)c4c(c3[C@H](COC1=O)N1[C@@H]2[C@H]2c3c(cc(C)c(OC)c3O)C[C@@H]([C@@H]1O)N2C)OCO4`: the GI50 is 0.00344 µM and the TGI was found to be 0.25 µM. `COC(=O)c1cc2c(cc1CC1Cc3cc4c(cc3C1)CCC4)CCC2` displayed a TGI above 100 µM.

Take `CCC/C=C/C=C/C1CC(O)C(O)C(=O)C1CO` (centres undefined): the TGI was above 100 µM.

On to `Cc1cccc(C2=C/C(=C(\SS/C(C(=O)c3ccc(OCC(=O)O)c(Cl)c3Cl)=C3\C=C(c4cccc(C)c4)SS3)C(=O)c3ccc(OCC(=O)O)c(Cl)c3Cl)SS2)c1`, for which the TGI is above 100 µM. Same read-out and setting: the result for `COc1cc2nc(-c3cccs3)oc(=O)c2cc1OC` reads above 100 µM; that for `Oc1[nH]c2ccc(Br)cc2c1N=NC(=S)Nc1ccc(F)cc1`, above 100 µM. In the case of `COc1ccc(-c2cnnn2-c2nonc2-n2cccc2)cc1`, the GI50 is 0.631 µM and the TGI is above 100 µM.

Consider `N#CC1=C(c2ccccc2)NNC(c2ccc(Cl)cc2)CC1=O` (centres undefined), for which the TGI is above 100 µM.

`N#CCc1nc(-c2ccccc2)n[nH]1` came in with a TGI above 100 µM. The same measure, in the same setting: under `CCOC(=O)C1(C(=O)OCC)COS(=O)OC1` stands above 100 µM; under `CC(=O)Oc1cc(C(F)(F)F)ccc1C(=O)OC1(C)OC(=O)c2ccc(C(F)(F)F)cc2O1` (centres undefined), above 100 µM; under `CCN(CC)CCCNC(=O)c1ccc([N+](=O)[O-])cc1O`, above 100 µM.

In the case of `c1csc(-c2ccc(-c3cccs3)c3nsnc23)c1`, the TGI was above 100 µM. On to `O=C(c1ccco1)c1c(C(F)(F)F)n([O-])c2ccc(C(F)(F)F)cc2[n+]1=O`, for which the GI50 was 1.58 µM and the TGI stood at 2.98 µM.
